# In the supplement of paper PMC8728848:
# This is one part of the list.
# Assays:
# Assay in all cases: glycan array binding signal (z-score within array); higher = stronger binding
# Conditions in all cases: glycan notation: IUPAC condensed, linker removed
# [1] = target: Man(a1-2)Man(a1-3)[Man(a1-2)Man(a1-6)]Man(a1-6)[Man(a1-2)Man(a1-2)Man(a1-3)]Man(b1-4)GlcNAc(b1-4)GlcNAc
# Procedure, shortened: (§1)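 Glycan array data were curated from 3228 arrays in the Consortium for Functional Glycomics database and kept only where the protein sequence was available. Glycan names were converted to IUPAC-condensed notation, and columns mapping to the same glycan were averaged. The binding signal is a within-array Z-score, averaged across arrays of the same protein sequence at different concentrations or buffers and across linkers. Negative Z-scores can be read as non-binding.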
# [2] = target: Man(a1-2)Man(a1-3)[Man(a1-6)]Man(a1-6)[Man(a1-2)Man(a1-3)]Man(b1-4)GlcNAc(b1-4)GlcNAc
# Procedure, shortened: as §1
# [3] = target: Man(a1-2)Man(a1-6)[Man(a1-3)]Man(a1-6)[Man(a1-2)Man(a1-2)Man(a1-3)]Man
# Procedure, shortened: as §1
# [4] = target: Man(a1-2)Man(a1-6)[Man(a1-3)]Man(a1-6)[Man(a1-2)Man(a1-2)Man(a1-3)]Man(b1-4)GlcNAc(b1-4)GlcNAc
# Procedure, shortened: as §1
# Man(a1-3)[Man(a1-6)]Man = target: Man(a1-3)[Man(a1-6)]Man
# Procedure, shortened: as §1
# [5] = target: Man(a1-3)[Man(a1-6)]Man(a1-6)[Man(a1-2)Man(a1-3)]Man(b1-4)GlcNAc(b1-4)GlcNAc
# Procedure, shortened: as §1
# [6] = target: Man(a1-3)[Man(a1-6)]Man(a1-6)[Man(a1-3)]Man
# Procedure, shortened: as §1
# [7] = target: Man(a1-3)[Man(a1-6)]Man(a1-6)[Man(a1-3)]Man(b1-4)GlcNAc(b1-4)GlcNAc
# Procedure, shortened: as §1
# [8] = target: Man(a1-3)[Man(a1-6)]Man(b1-4)GlcNAc(b1-4)GlcNAc
# Procedure, shortened: as §1
# Man(a1-6)Man = target: Man(a1-6)Man
# Procedure, shortened: as §1
# Man(b1-4)GlcNAc = target: Man(b1-4)GlcNAc
# Procedure, shortened: as §1
# Neu5Ac(a2-3)Gal = target: Neu5Ac(a2-3)Gal
# Procedure, shortened: as §1
# [9] = target: Neu5Ac(a2-3)Gal(b1-3)GalNAc
# Procedure, shortened: as §1
# [10] = target: Neu5Ac(a2-3)Gal(b1-3)GalNAc(b1-3)Gal(a1-4)Gal(b1-4)Glc
# Procedure, shortened: as §1
# [11] = target: Neu5Ac(a2-3)Gal(b1-3)GalNAc(b1-4)[Neu5Ac(a2-3)]Gal(b1-4)Glc
# Procedure, shortened: as §1
# [12] = target: Neu5Ac(a2-3)Gal(b1-3)GalNAc(b1-4)[Neu5Ac(a2-8)Neu5Ac(a2-3)]Gal(b1-4)Glc
# Procedure, shortened: as §1
# [13] = target: Neu5Ac(a2-3)Gal(b1-3)GalNAc6S
# Procedure, shortened: as §1
# [14] = target: Neu5Ac(a2-3)Gal(b1-3)GlcNAc
# Procedure, shortened: as §1
# [15] = target: Neu5Ac(a2-3)Gal(b1-3)GlcNAc(b1-2)Man(a1-3)[Neu5Ac(a2-3)Gal(b1-3)GlcNAc(b1-2)Man(a1-6)]Man(b1-4)GlcNAc(b1-4)GlcNAc
# Procedure, shortened: as §1
# [16] = target: Neu5Ac(a2-3)Gal(b1-3)GlcNAc(b1-3)Gal(b1-3)GlcNAc
# Procedure, shortened: as §1
# [17] = target: Neu5Ac(a2-3)Gal(b1-3)GlcNAc(b1-3)Gal(b1-4)GlcNAc
# Procedure, shortened: as §1
# [18] = target: Neu5Ac(a2-3)Gal(b1-3)GlcNAc(b1-3)GalNAc
# Procedure, shortened: as §1
# [19] = target: Neu5Ac(a2-3)Gal(b1-3)GlcNAc6S
# Procedure, shortened: as §1
# [20] = target: Neu5Ac(a2-3)Gal(b1-3)[Fuc(a1-4)]GlcNAc
# Procedure, shortened: as §1
# [21] = target: Neu5Ac(a2-3)Gal(b1-3)[Fuc(a1-4)]GlcNAc(b1-3)Gal(b1-3)[Fuc(a1-4)]GlcNAc
# Procedure, shortened: as §1
# [22] = target: Neu5Ac(a2-3)Gal(b1-3)[Fuc(a1-4)]GlcNAc(b1-3)Gal(b1-4)[Fuc(a1-3)]GlcNAc
# Procedure, shortened: as §1
# [23] = target: Neu5Ac(a2-3)Gal(b1-3)[Neu5Ac(a2-3)Gal(b1-4)]GlcNAc
# Procedure, shortened: as §1
# [24] = target: Neu5Ac(a2-3)Gal(b1-3)[Neu5Ac(a2-6)]GalNAc
# Procedure, shortened: as §1
# Neu5Ac(a2-3)Gal(b1-4)Glc = target: Neu5Ac(a2-3)Gal(b1-4)Glc
# Procedure, shortened: as §1
# [25] = target: Neu5Ac(a2-3)Gal(b1-4)GlcNAc
# Procedure, shortened: as §1
# [26] = target: Neu5Ac(a2-3)Gal(b1-4)GlcNAc(b1-2)Man(a1-3)[GlcNAc(b1-2)Man(b1-4)GlcNAc(b1-2)Man(a1-6)]Man(b1-4)GlcNAc(b1-4)GlcNAc
# Procedure, shortened: as §1
# [27] = target: Neu5Ac(a2-3)Gal(b1-4)GlcNAc(b1-2)Man(a1-3)[Neu5Ac(a2-6)Gal(b1-4)GlcNAc(b1-2)Man(a1-6)]Man(b1-4)GlcNAc(b1-4)GlcNAc
# Procedure, shortened: as §1
# [28] = target: Neu5Ac(a2-3)Gal(b1-4)GlcNAc(b1-3)Gal
# Procedure, shortened: as §1
# [29] = target: Neu5Ac(a2-3)Gal(b1-4)GlcNAc(b1-3)Gal(b1-3)GlcNAc
# Procedure, shortened: as §1
# [30] = target: Neu5Ac(a2-3)Gal(b1-4)GlcNAc(b1-3)Gal(b1-4)GlcNAc
# Procedure, shortened: as §1
# [31] = target: Neu5Ac(a2-3)Gal(b1-4)GlcNAc(b1-3)Gal(b1-4)GlcNAc(b1-3)Gal(b1-4)GlcNAc
# Procedure, shortened: as §1
# [32] = target: Neu5Ac(a2-3)Gal(b1-4)GlcNAc(b1-3)Gal(b1-4)[Fuc(a1-3)]GlcNAc
# Procedure, shortened: as §1
# [33] = target: Neu5Ac(a2-3)Gal(b1-4)GlcNAc(b1-3)GalNAc
# Procedure, shortened: as §1
# [34] = target: Neu5Ac(a2-3)Gal(b1-4)GlcNAc(b1-6)[Gal(b1-3)]GalNAc
# Procedure, shortened: as §1
# [35] = target: Neu5Ac(a2-3)Gal(b1-4)GlcNAc(b1-6)[Neu5Ac(a2-3)Gal(b1-3)]GalNAc
# Procedure, shortened: as §1
# [36] = target: Neu5Ac(a2-3)Gal(b1-4)GlcNAc6S
# Procedure, shortened: as §1
# [37] = target: Neu5Ac(a2-3)Gal(b1-4)[Fuc(a1-3)]GlcNAc
# Procedure, shortened: as §1
# [38] = target: Neu5Ac(a2-3)Gal(b1-4)[Fuc(a1-3)]GlcNAc(b1-3)Gal
# Procedure, shortened: as §1
# [39] = target: Neu5Ac(a2-3)Gal(b1-4)[Fuc(a1-3)]GlcNAc(b1-3)Gal(b1-4)GlcNAc
# Procedure, shortened: as §1
# [40] = target: Neu5Ac(a2-3)Gal(b1-4)[Fuc(a1-3)]GlcNAc(b1-3)Gal(b1-4)[Fuc(a1-3)]GlcNAc(b1-3)Gal(b1-4)[Fuc(a1-3)]GlcNAc
# Procedure, shortened: as §1
binder,measurement,setting,value
Gal 7 (Canis lupus) (protein) MAGSSNVPHKTSLPEGIRVGTVMRIRGVVPNKAGRFYVNLLCGEAPGSEAALHFNPRLDESTVVFNTLEQGAWGREERGTGIPFQRGQPFDVLLIATDEGFKAVVGDSEYHHFRYRIPPARVRLLEVGGDLQLESVSVF,glycan array binding signal (z-score),[1],-0.209
same,glycan array binding signal (z-score),[2],-0.208
same,glycan array binding signal (z-score),[3],-0.202
same,glycan array binding signal (z-score),[4],-0.219
same,glycan array binding signal (z-score),Man(a1-3)[Man(a1-6)]Man,-0.216
same,glycan array binding signal (z-score),[5],-0.212
same,glycan array binding signal (z-score),[6],-0.217
same,glycan array binding signal (z-score),[7],-0.193
same,glycan array binding signal (z-score),[8],-0.217
same,glycan array binding signal (z-score),Man(a1-6)Man,-0.209
same,glycan array binding signal (z-score),Man(b1-4)GlcNAc,-0.213
same,glycan array binding signal (z-score),Neu5Ac(a2-3)Gal,-0.216
same,glycan array binding signal (z-score),[9],-0.213
same,glycan array binding signal (z-score),[10],-0.189
same,glycan array binding signal (z-score),[11],-0.215
same,glycan array binding signal (z-score),[12],-0.185
same,glycan array binding signal (z-score),[13],-0.218
same,glycan array binding signal (z-score),[14],-0.211
same,glycan array binding signal (z-score),[15],-0.21
same,glycan array binding signal (z-score),[16],-0.068
same,glycan array binding signal (z-score),[17],-0.206
same,glycan array binding signal (z-score),[18],-0.22
same,glycan array binding signal (z-score),[19],-0.214
same,glycan array binding signal (z-score),[20],-0.203
same,glycan array binding signal (z-score),[21],-0.195
same,glycan array binding signal (z-score),[22],-0.214
same,glycan array binding signal (z-score),[23],-0.203
same,glycan array binding signal (z-score),[24],-0.195
same,glycan array binding signal (z-score),Neu5Ac(a2-3)Gal(b1-4)Glc,-0.204
same,glycan array binding signal (z-score),[25],-0.213
same,glycan array binding signal (z-score),[26],-0.195
same,glycan array binding signal (z-score),[27],-0.217
same,glycan array binding signal (z-score),[28],-0.173
same,glycan array binding signal (z-score),[29],-0.206
same,glycan array binding signal (z-score),[30],-0.219
same,glycan array binding signal (z-score),[31],0.112
same,glycan array binding signal (z-score),[32],-0.198
same,glycan array binding signal (z-score),[33],-0.203
same,glycan array binding signal (z-score),[34],-0.213
same,glycan array binding signal (z-score),[35],-0.213
same,glycan array binding signal (z-score),[36],-0.207
same,glycan array binding signal (z-score),[37],-0.212
same,glycan array binding signal (z-score),[38],-0.197
same,glycan array binding signal (z-score),[39],-0.205
same,glycan array binding signal (z-score),[40],-0.216
